Experimental findings from PMC7819943, “Rice protein-binding microarrays: a tool to detect cis-acting elements near promoter regions in rice” are described below.

Some of the results follow.

The assay addresses T1, OsWOX13 (Oryza sativa, UniProt Q5QMM3 1-267).
T1 sequence: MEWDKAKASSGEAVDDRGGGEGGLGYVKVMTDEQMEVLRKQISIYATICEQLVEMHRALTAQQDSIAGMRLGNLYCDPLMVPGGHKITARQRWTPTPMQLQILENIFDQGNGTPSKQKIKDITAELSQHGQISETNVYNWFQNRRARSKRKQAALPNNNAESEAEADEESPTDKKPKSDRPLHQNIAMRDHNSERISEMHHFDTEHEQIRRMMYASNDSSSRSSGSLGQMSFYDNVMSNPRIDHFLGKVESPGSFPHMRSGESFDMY
As to the kind of experiment: protein-binding microarray (RPBM); PBS, 2% BSA, 51.3 ng/ul salmon testes DNA, 50 uM zinc acetate, 200 nM TF, 25 C, 1 h; high values mean tight binding. As to conditions: protein: recombinant; tags: N-terminal polyhistidine and DsRed monomer fusion (pET32a); label: CyDye5-dUTP incorporated in the synthesized complementary strand; 3' TTTTT single-stranded linker to array surface; dsDNA, one strand shown. The procedure, abridged:
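Binding signal is reported as fluorescence intensity per feature (arbitrary units) from an Axon 4000B scanner. Incubation used 200 nM of each Ni–NTA-purified, N-terminally polyhistidine- and DsRed-fused transcription factor from E. coli BL21-CodonPlus on a double-stranded custom Agilent array for 1 h at 25 °C, with 50 µM zinc acetate in the buffer, followed by washing.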
For the sequence “GATTAATTAGGCTCAAAAGATTCGTCTCGTGGTTTCCAGACGGAGTCACCTAGTGCAG”, the binding signal was 19100 fluorescence intensity (a.u.). As to “GGTGAAATTGGTGCAGAAATTAAGTTCAGTTCCATTCCATCGGAGTCACCTAGTGCAG”, the binding signal is 13300 fluorescence intensity (a.u.). As for “CGAAATTAGAAGTTGTTGTATATTATAATGGTCAAAATGACGGAGTCACCTAGTGCAG”, the binding signal is 7220 fluorescence intensity (a.u.).

In the case of “GGTGATTCCGTGATTGGGTTTACGGCTAACTGTTTGCGGCCGGAGTCACCTAGTGCAG”, the binding signal is 29000 fluorescence intensity (a.u.). In the case of “AAGTGTTTGTAATTACTAAAATTTTGACATGAATTCAAATCGGAGTCACCTAGTGCAG”, the binding signal is 8700 fluorescence intensity (a.u.).

In the case of “GGCACCGGCGGAGGGGCGCGGGAGGGGAGGCGGCGGCGAGCGGAGTCACCTAGTGCAG”, the binding signal was 4050 fluorescence intensity (a.u.).

With “TGTGATTTCCTTGTGAGATTATAGAAGTGGCATTCAACACCGGAGTCACCTAGTGCAG”, the binding signal was 6570 fluorescence intensity (a.u.). For “CTCGTTGTGACAGATGGTAACCTGACGGCTACATTGCACGCGGAGTCACCTAGTGCAG”, the binding signal is 3910 fluorescence intensity (a.u.). Consider “CTTTTAGATTTGGCAAATAACTATTTGTCATCCCTATCTCCGGAGTCACCTAGTGCAG”, for which the binding signal was 8990 fluorescence intensity (a.u.). As for “AATGATAAACATCTCAATTTTGTGTACTACAAACTGTGAGCGGAGTCACCTAGTGCAG”, the binding signal was 7120 fluorescence intensity (a.u.). On to “TTGTGACTAATCATGAGTTTGATTATAGTATTGTCACACGCGGAGTCACCTAGTGCAG”, for which the binding signal was 28600 fluorescence intensity (a.u.). Consider “TAATACAGATTATAACAATCTAGCTTATAGTAATCTGACTCGGAGTCACCTAGTGCAG”, for which the binding signal was 5140 fluorescence intensity (a.u.).

As to “TGAAGTTAATTTTGGTGTTCTTGGATTTTCCATGCATCTCCGGAGTCACCTAGTGCAG”, the binding signal was 3410 fluorescence intensity (a.u.). The same measure for “CACTGACTGATTCCAATGAATTCGGCTTGGTTAGTTCATGCGGAGTCACCTAGTGCAG”: 34800 fluorescence intensity (a.u.); for “AGGAGTAGTAATTAATTAATTAAGCAGGTTGTAACCGCCCCGGAGTCACCTAGTGCAG”: 26600 fluorescence intensity (a.u.); for “CAAAATGAACCACAAACTGATTTGCTCCTCCCGAAGGTTCCGGAGTCACCTAGTGCAG”: 14000 fluorescence intensity (a.u.). For the sequence “TAAAATTATCAAAATATTATATTATACACATAAGATTGTACGGAGTCACCTAGTGCAG”, the binding signal was 5140 fluorescence intensity (a.u.). The same measure for “TACTTATCAATGTATGATAGATGTATCTCAAATGGACACGCGGAGTCACCTAGTGCAG”: 3210 fluorescence intensity (a.u.); for “ATTGTCGATTTGAATTGGATTGGATGGCAAAGGTTACGAGCGGAGTCACCTAGTGCAG”: 10200 fluorescence intensity (a.u.); for “CAGAGGCGTCGTCGTTGATTAGGGCGATTGGATTAGTCGCCGGAGTCACCTAGTGCAG”: 6730 fluorescence intensity (a.u.). The same measure for “AAATGCAAAGGTGATGGATTAATTAGGCTTAATAAATTCGCGGAGTCACCTAGTGCAG”: 5180 fluorescence intensity (a.u.); for “AGTATCAATTACTATCAGATTGAATTCTGTTTGTGTCGTGCGGAGTCACCTAGTGCAG”: 38400 fluorescence intensity (a.u.); for “ATGGTGTTGAGCTGTTGATTGATCAATAACTGAATTAGTTCGGAGTCACCTAGTGCAG”: 33900 fluorescence intensity (a.u.). “ACTAAATTTACTGCTCAATTCTGAGCAATTTTGATCCTGTCGGAGTCACCTAGTGCAG”: the binding signal was 23800 fluorescence intensity (a.u.). In the case of “CACCCTAATTAGCACCGGCGCTGCTAGTTATCTACTCTATCGGAGTCACCTAGTGCAG”, the binding signal was 18900 fluorescence intensity (a.u.). As to “TAACAAAATAAATTACAGATTCCGCTAGGAAACTGCGAGACGGAGTCACCTAGTGCAG”, the binding signal is 3900 fluorescence intensity (a.u.). In the case of “TAAAGATGTGACATTTAATTATTTGCTACCTATAATCTATCGGAGTCACCTAGTGCAG”, the binding signal is 5190 fluorescence intensity (a.u.). Regarding “TAAGATTAAGCCATTAATTAGCCAAGCTAACTAAGCAAGCCGGAGTCACCTAGTGCAG”, the binding signal was 17500 fluorescence intensity (a.u.). As for “CGGTGATTGATTTCAGATTTGAGTGGTTGATTACAACCTTCGGAGTCACCTAGTGCAG”, the binding signal is 30200 fluorescence intensity (a.u.).

Regarding “GTTTATAATTAGCATAGTAGTTTCTTGAGGCAGCCAGTGTCGGAGTCACCTAGTGCAG”, the binding signal was 19000 fluorescence intensity (a.u.).

With “TCTCTTGACTGTGTAAAACAACTTCACGTGACAGCCTAGGCGGAGTCACCTAGTGCAG”, the binding signal is 4080 fluorescence intensity (a.u.). On to “ACTAATTAACCACAAGTGCATGGGCTCTTAGTTGTCACCACGGAGTCACCTAGTGCAG”, for which the binding signal was 20200 fluorescence intensity (a.u.). Turning to “TACACCTTAATTGCAAACTGGTTGATGCAAACCATAACAGCGGAGTCACCTAGTGCAG”, the binding signal was 22700 fluorescence intensity (a.u.).

Turning to “TCGGTTGATTTCTTGCAGAGATTAAGTAGCAGCAGGTGTTCGGAGTCACCTAGTGCAG”, the binding signal is 6280 fluorescence intensity (a.u.).

In the case of “AATTAATTTAGCCCCTAATTAATTAGCAGCCAATCAACGGCGGAGTCACCTAGTGCAG”, the binding signal was 54000 fluorescence intensity (a.u.). Consider “TATATATTAATGAATTTAGACATATATGTGTGTCTAGATTCGGAGTCACCTAGTGCAG”, for which the binding signal is 5000 fluorescence intensity (a.u.). The same measure for “ACTAGACAAAATTTCCTCTTAATGGGCTAATGGGCCTCCACGGAGTCACCTAGTGCAG”: 6720 fluorescence intensity (a.u.). Regarding “CAGATTGGCAATCTCTCCTTCCTCTCCAGCCTTGTACTCACGGAGTCACCTAGTGCAG”, the binding signal is 39300 fluorescence intensity (a.u.). Consider “TCCAAATTACCAGAGAATTGGCGTAGACCATTTCTTCAAACGGAGTCACCTAGTGCAG”, for which the binding signal is 8190 fluorescence intensity (a.u.).

In the case of “GCCTTAATTGATTAACCGTGTAACATCTTCCTCACGCACCCGGAGTCACCTAGTGCAG”, the binding signal was 65500 fluorescence intensity (a.u.). The same measure for “GCTGATTCAGTAACTGTGACTCGCATGATGTAGTTCAGGACGGAGTCACCTAGTGCAG”: 4240 fluorescence intensity (a.u.); for “TTTAATGACTCGCAATAGACAACTCGAAGTCATATCGATACGGAGTCACCTAGTGCAG”: 4830 fluorescence intensity (a.u.).
